Test results: article PMC4336329 (PLoS ONE, 2015)
Among all 310,000 compounds or so, about 14,000 (4.5%) showed an effect of 50% or more. The effect is printed as a negative number. The list shows a part of the results.

molecular target: human ether-à-go-go-related gene (hERG) potassium channel (human, UniProt Q12809); experiment: primary screen, population patch clamp on CHO cells stably expressing hERG
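Further: peak tail current of the secondary pulse compared with the same well before compound.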

Chain of human ether-à-go-go-related gene (hERG) potassium channel (Q12809 whole entry, looked up): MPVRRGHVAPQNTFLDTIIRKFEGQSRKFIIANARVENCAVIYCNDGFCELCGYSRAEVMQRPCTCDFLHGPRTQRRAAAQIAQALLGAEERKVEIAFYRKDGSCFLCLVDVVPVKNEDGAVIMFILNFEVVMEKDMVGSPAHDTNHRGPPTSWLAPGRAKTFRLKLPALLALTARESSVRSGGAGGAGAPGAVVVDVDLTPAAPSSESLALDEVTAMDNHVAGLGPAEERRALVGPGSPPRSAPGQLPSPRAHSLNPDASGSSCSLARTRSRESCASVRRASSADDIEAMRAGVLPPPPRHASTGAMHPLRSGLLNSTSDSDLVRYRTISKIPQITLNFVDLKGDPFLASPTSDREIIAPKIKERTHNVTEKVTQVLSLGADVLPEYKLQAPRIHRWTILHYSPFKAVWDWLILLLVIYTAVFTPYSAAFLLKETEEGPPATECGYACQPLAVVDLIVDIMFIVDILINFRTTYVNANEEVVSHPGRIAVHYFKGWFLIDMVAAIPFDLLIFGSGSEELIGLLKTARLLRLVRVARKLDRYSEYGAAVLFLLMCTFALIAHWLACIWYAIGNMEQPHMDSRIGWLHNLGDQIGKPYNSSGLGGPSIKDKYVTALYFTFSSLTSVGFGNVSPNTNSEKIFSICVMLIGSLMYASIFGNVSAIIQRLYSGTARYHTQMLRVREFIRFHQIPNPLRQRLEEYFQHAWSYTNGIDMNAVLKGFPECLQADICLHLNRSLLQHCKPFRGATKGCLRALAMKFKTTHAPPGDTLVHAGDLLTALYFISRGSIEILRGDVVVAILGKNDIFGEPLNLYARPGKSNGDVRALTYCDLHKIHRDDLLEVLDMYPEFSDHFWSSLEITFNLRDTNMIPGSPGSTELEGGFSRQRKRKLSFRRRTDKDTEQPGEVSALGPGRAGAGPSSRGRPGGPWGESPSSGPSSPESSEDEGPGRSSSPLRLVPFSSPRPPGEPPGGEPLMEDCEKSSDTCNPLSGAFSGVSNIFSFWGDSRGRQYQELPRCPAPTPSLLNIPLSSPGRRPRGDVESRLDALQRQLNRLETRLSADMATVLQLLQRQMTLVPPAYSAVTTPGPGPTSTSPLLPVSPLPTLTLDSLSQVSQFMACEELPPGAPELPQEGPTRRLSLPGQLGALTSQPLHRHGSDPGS

Going from COC(=O)C1=C(C)N(Cc2cccnc2)C(=O)/C1=C\c1cccs1 to COc1ccc(C(=O)C2CCCN(Cc3cccn3-c3nccs3)C2)cc1F (centres unmarked), the “hERG current change (%, negative = inhibition) at 10uM” value rises from -89% to -83.5%.

Going from COc1cc(/C=C(\C#N)C(=O)Nc2ccc(SC(F)F)cc2)cc(OC)c1OC to COc1cc(NC(=O)c2ccc(F)cc2)c(OC)cc1NC(=O)CN1CCOCC1, the “hERG current change (%, negative = inhibition) at 10uM” value falls from -22.4% to -22.6%.

Compared with COC(=O)c1ccc(NC(=O)COc2ccc(C3C(C#N)=C(N)Oc4c3ccc3ccccc43)cc2OC)cc1 (centres unmarked), COc1ccc([C@H]2[C@H](C(=O)OC(C)(C)C)N3N=Cc4ccccc4C3C23C(=O)c2ccccc2C3=O)cc1OC (some centres unmarked) is lower in “hERG current change (%, negative = inhibition) at 10uM” value: 8.25% for the first, -3.91% for the second.

Compared with Cc1nnc(SCC(=O)Nc2ncc3c(n2)CC(c2ccccc2)CC3=O)s1 (centres unmarked), CCOC(=O)c1cnc(-c2ccccc2)nc1N(C)C is higher in “hERG current change (%, negative = inhibition) at 10uM” value: -4.67% for the first, -1.83% for the second.

Compared with CC(=O)c1ccc(OCC(=O)Nc2ccccc2C(=O)NC2CC2)cc1, COc1ccc(N(CC(=O)NC2CC2)S(=O)(=O)c2ccccc2)cc1 is higher in “hERG current change (%, negative = inhibition) at 10uM” value: 6.93% for the first, 13% for the second.

Going from CCN1CCN(Cc2ccc(NC(=O)c3ccc(C)c(NC(=O)C(=O)c4c[nH]c5ccccc45)c3)cc2C(F)(F)F)CC1.O=C(O)C(F)(F)F to Cc1ccc(NS(=O)(=O)c2cc(C(=O)Nc3cccc([N+](=O)[O-])c3)ccc2C)cc1, the “hERG current change (%, negative = inhibition) at 10uM” value rises from 7.78% to 12.1%.

First: CC(=O)c1sc(NC(=O)CS(=O)(=O)c2ccc(F)cc2)nc1C
Second: CCOC(=O)c1cc(S(=O)(=O)Nc2cccc(OC)c2)cn1C
The “hERG current change (%, negative = inhibition) at 10uM” value of the first is lower: -22.1% for the first, -10.9% for the second.

First: COc1ccccc1C(CNC(=O)c1ccc(C)c(S(=O)(=O)N2CCCCC2)c1)N(C)C (centres unmarked)
Second: O=C(COC(=O)c1cccc(S(=O)(=O)N2CCc3ccccc32)c1)Nc1ncc(Cl)cc1Cl
The “hERG current change (%, negative = inhibition) at 10uM” value of the first is lower: -36.6% for the first, -33% for the second.

Compared with Cc1ccc(-n2cc(CN(C)CCc3cn[nH]c3)c(-c3cccc(C)c3)n2)cc1, COc1ccc(-c2nn(-c3ccccc3)cc2/C=C(\C#N)S(=O)(=O)c2ccccc2)cc1OC is higher in “hERG current change (%, negative = inhibition) at 10uM” value: -68% for the first, 23.7% for the second.

Compared with Cl.OCc1cc(CO)c(O)c(CCc2ccccc2)n1, C/C(N)=C(/C#N)C(=O)CSc1cc(C)c2ccccc2n1 is lower in “hERG current change (%, negative = inhibition) at 10uM” value: 13.7% for the first, 6.89% for the second.

First: CCc1ccc(CN(C)C(=O)CCc2nnc(CCc3cccc(OC)c3)o2)nc1
Second: CCCOc1ccc(/C(O)=C2/C(=O)C(=O)N(CCN(C)C)C2c2ccco2)cc1 (centres unmarked)
The “hERG current change (%, negative = inhibition) at 10uM” value of the first is lower: -33.3% for the first, 10.4% for the second.

Compared with CC(=O)c1c(C)[nH]c(C2=NNC(=NCc3ccccc3)SC2)c1C, CC(C)(O)C1=NOC(c2ccccc2)C1 (centres unmarked) is lower in “hERG current change (%, negative = inhibition) at 10uM” value: 25.9% for the first, 13.3% for the second.

Compared with O=C(Nc1nc(-c2ccc(F)cc2)cs1)C1CCN(C(=O)c2ccc(F)cc2)CC1, O=C(Nc1ccccc1N1CCN(C(=O)c2ccc(Cl)cc2)CC1)c1cccnc1 is lower in “hERG current change (%, negative = inhibition) at 10uM” value: -54.7% for the first, -73.2% for the second.

Compared with CCc1nn(C(C)C(=O)NCCN2CCN(c3cccc(C)c3C)CC2)c(=O)c2cc3occc3n12 (centres unmarked), CCCCn1c(SCC(=O)N2CCOCC2)nc2ccccc2c1=O is lower in “hERG current change (%, negative = inhibition) at 10uM” value: -65.3% for the first, -68.4% for the second.

First: C=CCn1c(O)c(C(C)=NCCO)c(=O)[nH]c1=O
Second: C=CCn1c(COc2ccccc2F)nnc1SCC(=O)N1CC(=O)Nc2ccccc21
The “hERG current change (%, negative = inhibition) at 10uM” value of the first is higher: 1.19% for the first, -22.6% for the second.

Compared with CSc1cccc(NC(=O)CNC(=O)C2CCCCC2)c1, CCOC(=O)C1(CC2CCCCO2)CCN(Cc2ccc(OC)cc2F)CC1 (centres unmarked) is lower in “hERG current change (%, negative = inhibition) at 10uM” value: 10.1% for the first, -54.8% for the second.

Compared with COc1ccc(NC(=O)/C=C/c2ccc(Br)o2)cn1, COC(=O)CSc1nnc(-c2ccncc2)o1 is lower in “hERG current change (%, negative = inhibition) at 10uM” value: 6.98% for the first, -1.54% for the second.

Compared with COc1ccc(-n2c(C)nc3ccccc3c2=O)c([N+](=O)[O-])c1, COc1cc(N=C2C(=O)N3c4c(cccc42)C(C)=CC3(C)C)cc(OC)c1 is higher in “hERG current change (%, negative = inhibition) at 10uM” value: -6.62% for the first, 3.85% for the second.

First: CCC(C)N(C(=O)CSc1nc2ccc(OC)cc2[nH]1)C1CCS(=O)(=O)C1 (centres unmarked)
Second: COc1ccc(C(OC(=O)c2ccco2)C(=O)NCc2ccc(C)cc2)cc1 (centres unmarked)
The “hERG current change (%, negative = inhibition) at 10uM” value of the first is higher: 13.7% for the first, 7.24% for the second.

First: O=C(Nc1cccc(O)c1)c1cccc(S(=O)(=O)Nc2cccc(O)c2)c1
Second: O=C(CC(c1ccccc1)c1ccccc1)Nc1ccncc1
The “hERG current change (%, negative = inhibition) at 10uM” value of the first is higher: 18.6% for the first, -8.13% for the second.

First: Nc1nonc1C(=O)N/N=C/c1cc2c(cc1Br)OCO2
Second: Cc1ccc(-c2c(C(=O)N/N=C/c3ccoc3)nnn2-c2nonc2N)cc1
The “hERG current change (%, negative = inhibition) at 10uM” value of the first is lower: 9.34% for the first, 10.6% for the second.

Going from CN(CCO)c1cc(N2CCCCC2)c2nonc2c1[N+](=O)[O-] to COCCSc1nnc(NC(=O)c2ccc([N+](=O)[O-])cc2)s1, the “hERG current change (%, negative = inhibition) at 10uM” value rises from 5.59% to 27.9%.

Going from C=CCN1C(=O)NC(c2ccccc2)(C(F)(F)F)S/C1=C(\C#N)c1nnc(N2CCOCC2)n1-c1ccccc1 (centres unmarked) to O=C(CSc1ncnc2c1oc1ccccc12)OCc1ccccc1, the “hERG current change (%, negative = inhibition) at 10uM” value rises from -19.4% to 14%.

Compared with COCCNC(=O)CN(C(=O)CCC(=O)Nc1nccs1)c1ccccc1OC, CCN(CC)CCCNC(=O)c1cc(-c2cccc(Cl)c2)on1 is lower in “hERG current change (%, negative = inhibition) at 10uM” value: 9.08% for the first, -60.7% for the second.

First: Cc1ccc(-n2c(O)c(C=NCCN3CCNCC3)c(=O)[nH]c2=S)cc1
Second: CCc1noc(C)c1C(=O)Nc1ccc(F)c(F)c1
The “hERG current change (%, negative = inhibition) at 10uM” value of the first is higher: 22% for the first, -15.4% for the second.

Going from Cn1nnnc1SCCNS(=O)(=O)c1ccccc1 to N#Cc1c(C(F)(F)F)cc(-c2ccco2)nc1SCc1ccccn1, the “hERG current change (%, negative = inhibition) at 10uM” value rises from 4.96% to 12.1%.

In the case of CC12CCC(C(=O)Nc3ncc([N+](=O)[O-])s3)(OC1=O)C2(C)C (centres unmarked), the “hERG current change (%, negative = inhibition) at 10uM” value is reported as 4.95%.
